# Source: PubChem BioAssay AID488969 (Vanderbilt High Throughput Screening Facility, 2010)
# Whole data set: some 110,000 compounds, median “z-score” near -0.1, cut for the highest 2% near 2. The list shows a part of the results. The source made the active and inactive calls.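 The calls were made as follows: active = z-score in the third read window above 3 or below -3; inactive = the rest.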
# Molecular target: Metabotropic glutamate receptor 8 (Rattus norvegicus) (UniProt P70579)
# Assay: mGluR8 Gi/Go-coupled signaling modulation – cell-based, rat, thallium flux, HTS, primary screen (AID 488969)
# Details: HEK293 rat mGluR8, GIRK (G protein-gated inwardly rectifying potassium channel) thallium flux, FluoZin2; at 10 µM; stronger effect = higher value; submaximal glutamate (EC20) added with thallium
# UniProt P70579, sequence (P70579 whole entry, looked up): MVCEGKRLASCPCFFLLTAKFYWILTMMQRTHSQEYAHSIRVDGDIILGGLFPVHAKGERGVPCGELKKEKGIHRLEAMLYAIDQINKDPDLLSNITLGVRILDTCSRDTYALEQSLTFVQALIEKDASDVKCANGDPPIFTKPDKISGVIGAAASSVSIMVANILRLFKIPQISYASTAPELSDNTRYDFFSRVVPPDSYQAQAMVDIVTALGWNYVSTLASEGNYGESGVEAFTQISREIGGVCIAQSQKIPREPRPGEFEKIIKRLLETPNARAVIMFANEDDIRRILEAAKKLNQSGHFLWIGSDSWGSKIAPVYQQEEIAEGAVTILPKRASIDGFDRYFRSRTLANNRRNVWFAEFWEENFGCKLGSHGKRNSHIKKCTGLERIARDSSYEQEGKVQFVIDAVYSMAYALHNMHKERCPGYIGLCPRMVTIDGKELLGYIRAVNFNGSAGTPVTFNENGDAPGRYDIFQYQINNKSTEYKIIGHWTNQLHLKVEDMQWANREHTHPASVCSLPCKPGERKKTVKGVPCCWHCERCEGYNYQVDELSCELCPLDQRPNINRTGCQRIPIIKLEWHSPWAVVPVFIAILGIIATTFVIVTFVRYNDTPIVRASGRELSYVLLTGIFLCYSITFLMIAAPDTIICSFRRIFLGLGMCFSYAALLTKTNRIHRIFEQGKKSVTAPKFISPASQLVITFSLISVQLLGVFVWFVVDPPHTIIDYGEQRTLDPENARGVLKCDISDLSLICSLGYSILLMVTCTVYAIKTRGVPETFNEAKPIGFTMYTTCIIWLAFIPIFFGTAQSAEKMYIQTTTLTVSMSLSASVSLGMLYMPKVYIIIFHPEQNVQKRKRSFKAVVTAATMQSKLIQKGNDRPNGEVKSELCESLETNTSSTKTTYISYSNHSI
row,SMILES,z-score
1,Cc1cc(C)c(C#N)c(SCC(=O)c2ccc(Cl)cc2Cl)n1,1.51
2,Cn1c(CCNC(=O)c2ccccc2)nc2ccccc21,-0.296
3,CC(=O)c1cc2c(cc1NC(=O)CN1CCN(c3cccc(C(F)(F)F)c3)CC1)OCO2,0.184
4,CC(/C=N/NC(=O)Cc1cc(=O)[nH][nH]1)=C\c1ccccc1,0.0693
5,CC1=Nc2ccc(C)cc2N(Cc2ccccc2)C(=O)C1,-0.355
6,CCOc1cc(/C=C/c2nc3cc(C)c(C)cc3s2)ccc1OCC(=O)N1CCOCC1,-0.0595
7,O=C(CC1SC(N2CCCCC2)=NC1=O)Nc1cccc(C(F)(F)F)c1 (stereo not given),0.147
8,[O-][N+]12CCN(CC1)c1ccccc12,0.065
9,Cc1cc(NC(=S)NC(=O)C2CC2)ccc1Br,0.599
10,C=CCn1c(=O)c2ccccc2n2c(SCC(=O)c3ccccc3)nnc12,-0.739
11,C=CCN1C(=O)CS/C1=N\S(=O)(=O)c1ccc(Cl)cc1,-0.277
12,Nc1nc(-c2cccnc2)nn1C(=O)CCc1ccccc1,-0.218
13,O=C(O)c1ccc(N2C(=O)C3ON(c4ccccc4)C(c4ccccc4F)C3C2=O)cc1 (stereo not given),0.0668
14,Cc1cc(C)c(-c2noc(C(=O)OC(C)(C)C)c2C(=O)OC(C)(C)C)c(C)c1,-0.139
15,COc1cc(CN2C(=O)C(NC(=O)c3ccco3)(C(F)(F)F)C3=C2CC(C)(C)CC3=O)cc(OC)c1 (stereo not given),-0.316
16,CSc1nnnn1-c1cccc(O)c1,0.00114
17,CC(Oc1ccc(C(=O)NCCc2ccccc2)cc1)C(=O)O (stereo not given),-0.223
18,CCOC(=O)Nc1nnc(-c2ccccc2OC)s1,-0.566
19,Cc1cccc(-c2noc(CCC(=O)NCC3CCCO3)n2)c1 (stereo not given),0.0809
20,Cc1ccc(C)c(NC(=O)CN(C)C(=O)COc2ncnc3sccc23)c1,-0.0428
21,COc1cccc2[nH]c3c(N4CCCCC4)ncnc3c12,0.763
22,CCC1(CC)Cc2ccccc2C(N)=C1C#N,-0.919
23,CCN(CC)C(=S)SCC(=O)Nc1ccc(F)cc1,-0.211
24,Cc1ccccc1C(=O)Nc1ccccc1Sc1ccccc1,-0.151

row,SMILES,z-score
1,N#CCc1c(C#N)c(N)nc(N2CCN(c3ccc(F)cc3)CC2)c1C#N,-0.789
2,CC(C)(C)c1ccc(CSc2nnc(-c3ccccc3NC(=O)c3ccccc3)o2)cc1,-0.0927
3,Cc1nc(SC2CCOC2=O)c2c(C)c(C)sc2n1 (stereo not given),active: 4.12
4,COc1cccc(C(=O)CN(C(=O)c2ccc(Cl)cc2Cl)N2C(=O)c3ccccc3C2=O)c1,-0.0496
5,COc1ccc(-c2cc(=O)n(-c3nc4ccccc4[nH]3)[nH]2)cc1,0.773
6,CCOC(=O)N1CCN(S(=O)(=O)c2ccc(OCC)c3ccccc23)CC1,-0.816
7,Cc1ccc(NC2=C(C(=O)c3ccccc3)N(C)S(=O)(=O)c3ccccc32)cc1,-0.266
8,C/C(Cl)=C\Cn1c(Nc2cccc(C)c2)nc2c1c(=O)n(C)c(=O)n2C,-1.56
9,CCCCC1CCC(C(=O)Nc2c(C)n(C)n(-c3ccccc3)c2=O)CC1 (stereo not given),0.437
10,COCC(C)NC(=O)c1ccc(-n2nc(C(F)(F)F)cc2-c2cccs2)cc1 (stereo not given),-0.186
11,Cc1nc(NCc2ccco2)nc2c1C(=O)CC(C)C2 (stereo not given),-0.121
12,COc1cccc(OC)c1C(=O)NC(C)C12CC3CC(CC(C3)C1)C2 (stereo not given),-0.239
13,CCOc1cc(C2C3=C(CCCC3=O)Nc3nc(C(=O)OC)nn32)ccc1OC (stereo not given),0.0283
14,CCCC(=O)N=C1SC2CS(=O)(=O)CC2N1c1ccc(-c2nc3ccc(C)cc3s2)cc1 (stereo not given),-0.238
15,CCn1nnnc1SCC(=O)Nc1cc(C)on1,-0.103
16,CCOC(=O)CNC(=O)CSc1ncnc2c1cnn2-c1ccccc1,-0.0413
17,CCN(CC)C(=O)CSC1=Nc2ccccc2C2=NC(c3ccccc3)C(=O)N12 (stereo not given),-0.599
18,Cc1cc(C)cc(NC(=O)Nc2ccc3c(c2)N(C)C(=O)CS3)c1,0.371
19,CCN(C(=O)CSc1nncn1-c1ccccc1)c1c(N)n(Cc2ccccc2)c(=O)[nH]c1=O,-0.271
20,Cc1c(CNC2CCCC(C)C2C)c(C(=O)O)c(C)n1Cc1ccccc1 (stereo not given),-0.415
21,C=CCn1cc(/C=N/Nc2nc3ccccc3[nH]2)c2ccccc21,-0.32
22,CC(=O)Nc1ccc(NC(=O)C2CC(=O)N=C(N)S2)cc1 (stereo not given),-0.158
23,COc1cc(Br)cc2cc(C(=O)NCC3CCCO3)c(=O)oc12 (stereo not given),-0.0701
24,O=C(CC1NC(=O)NC1=O)Nc1ccc(Cl)cc1 (stereo not given),0.084

row,SMILES,z-score
1,CCC(C)(C)n1nnnc1C(c1cc2cc(C)ccc2[nH]c1=O)N1CCCC1 (stereo not given),-0.462
2,CCCCCCSc1nc(O)c(C2OC(=O)c3c2ccc(OC)c3OC)c(=O)n1-c1ccccc1 (stereo not given),-1.44
3,CC(=O)NCCC(=O)Nc1cc(F)ccc1C,-0.222
4,O=c1[nH]c(CN2CCN(S(=O)(=O)c3ccccc3C(F)(F)F)CC2)nc2sc3c(c12)CCCC3,-0.148
5,Cc1cc(NS(=O)(=O)c2ccc(NC(=O)NC(C)(C(F)(F)F)C(F)(F)F)cc2)no1,0.394
6,Cc1cccc(NC(=O)CN2C(=O)CNC2=O)c1,-0.642
7,Cc1nonc1C(=O)N/N=C/c1ccc(O)cc1,-0.0268
8,Cc1cc(N/N=C\c2ccccc2)nc(-c2ccccc2O)n1,0.987
9,O=c1oc(-c2ccccc2NS(=O)(=O)c2ccc3ccccc3c2)nc2ccccc12,-0.224
10,COCC(C)n1c(SCC(=O)NNC(=O)c2ccc(F)cc2)nc2ccccc2c1=O (stereo not given),0.283
11,Cc1ccccc1C(OCCN(C)C)C1CCCCC1 (stereo not given),1.18
12,COc1cc(OC)c(C(=O)Nc2ccccc2-c2ccccc2)cc1OC,-0.424
13,COc1ccc(CNC(=O)C(c2ccco2)N(Cc2cccs2)C(=O)Cc2cccs2)cc1 (stereo not given),-0.0856
14,COc1ccc(CN2CCN(S(=O)(=O)c3ccc(F)cc3)CC2)cc1OC,-0.197
15,CCCC(CCC)C(=O)Nc1ccncc1,0.135
16,Cc1nn(-c2ccccc2)c(N2CCCC2)c1/C=C1\N=C(c2ccc(OC(C)C)cc2)OC1=O,-0.0298
17,CSc1ccc(NC(=O)N2CCN(c3nc4ccccc4s3)CC2)cc1,-0.123
18,CCn1c(SCC(=O)N2CCc3ccccc32)nnc1-c1ccncc1,0.678
19,O=C1CC(Cc2ccccc2)C(=O)N1CCCn1ccnc1 (stereo not given),0.16
20,Cc1cc(NCCN2CCCCC2)n2c(nc3ccccc32)c1C#N,-0.518
21,CCCc1cc(C(=O)Nc2sc(C(C)=O)c(C)c2C(=O)OCC)no1,-1.71
22,Cc1cc(C)n2nc(-c3ccc(F)cc3)nc2n1,-0.0637
